Patent publication US20220273678A1 (priority 2020, published 2022)

Test system: SARS-CoV-2
Assay type: cell-based
Conditions: methanesulfonate

COC1=C(OC)C(=O)C(CCCCCCCCCC[P+](c2ccccc2)(c2ccccc2)c2ccccc2)=C(C)C1=O.CS(=O)(=O)[O-] [Mito-MES, 10-(4,5-dimethoxy-2-methyl-3,6-dioxo-1,4-cyclohexadienyl) decyl triphenylphosphonium methanesulfonate]
percent of SARS-CoV-2 infected Calu3 cells, flow cytometry: attenuated the percent of SARS-CoV-2 infected Calu3 cells; also recorded: inhibits or reduces the percent of SARS-CoV-2 infected Calu3 cells

“Also recorded” adds a separate entry of the source.
